# Article PMC4336329 (PLoS ONE, 2015)
# In all, about 310,000 compounds went through this assay and about 2,200 (0.71%) showed an effect of 50% or more. Effects have a minus sign here. Some of the results follow.
# Target: human ether-à-go-go-related gene (hERG) potassium channel (human, UniProt Q12809)
# Assay: primary screen, population patch clamp on CHO cells stably expressing hERG
# Chain of human ether-à-go-go-related gene (hERG) potassium channel (Q12809 whole entry, looked up): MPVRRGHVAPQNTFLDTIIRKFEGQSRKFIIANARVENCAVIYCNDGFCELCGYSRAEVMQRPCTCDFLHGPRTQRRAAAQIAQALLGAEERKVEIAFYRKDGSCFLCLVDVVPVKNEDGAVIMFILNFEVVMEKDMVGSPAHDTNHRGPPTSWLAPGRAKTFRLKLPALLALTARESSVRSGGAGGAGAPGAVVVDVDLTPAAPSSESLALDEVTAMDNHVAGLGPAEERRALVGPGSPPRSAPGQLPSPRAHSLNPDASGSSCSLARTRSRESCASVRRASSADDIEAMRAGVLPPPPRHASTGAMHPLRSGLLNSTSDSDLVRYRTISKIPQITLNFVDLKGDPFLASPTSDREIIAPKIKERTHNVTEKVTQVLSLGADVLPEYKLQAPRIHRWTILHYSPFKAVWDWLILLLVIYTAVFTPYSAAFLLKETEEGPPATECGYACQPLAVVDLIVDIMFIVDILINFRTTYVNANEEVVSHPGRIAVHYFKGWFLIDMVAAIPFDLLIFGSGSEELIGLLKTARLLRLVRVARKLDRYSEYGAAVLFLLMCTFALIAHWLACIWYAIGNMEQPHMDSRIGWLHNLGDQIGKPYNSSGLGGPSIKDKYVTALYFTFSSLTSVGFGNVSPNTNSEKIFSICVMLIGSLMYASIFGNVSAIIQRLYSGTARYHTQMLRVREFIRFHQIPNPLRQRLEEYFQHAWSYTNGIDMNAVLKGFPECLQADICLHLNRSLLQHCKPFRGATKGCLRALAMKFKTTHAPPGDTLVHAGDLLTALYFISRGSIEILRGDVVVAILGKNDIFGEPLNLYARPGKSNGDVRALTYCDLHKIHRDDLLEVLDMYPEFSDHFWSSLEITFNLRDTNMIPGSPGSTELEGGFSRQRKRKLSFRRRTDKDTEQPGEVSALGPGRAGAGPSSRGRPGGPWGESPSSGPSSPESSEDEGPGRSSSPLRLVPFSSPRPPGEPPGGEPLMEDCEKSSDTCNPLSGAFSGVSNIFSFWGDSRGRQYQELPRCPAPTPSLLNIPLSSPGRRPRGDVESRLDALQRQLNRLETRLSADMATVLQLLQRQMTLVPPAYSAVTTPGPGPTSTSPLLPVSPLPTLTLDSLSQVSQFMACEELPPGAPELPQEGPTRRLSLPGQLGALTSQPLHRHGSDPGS
row,SMILES,"hERG current change (%, negative = inhibition) at 1uM"
1,Cc1cc(C)n2[nH]c(=O)c(N=Nc3cccc(Cl)c3)c2n1,4.83%
2,CC(Sc1nccn1C)C(=O)Nc1ccc(C(N)=O)cc1 (stereo not shown),3.5%
3,COCc1cc(=O)[nH]c(N2CCN(c3ccccc3OC)CC2)n1,-1.43%
4,Cc1cc(C)c(NC(=S)NC(CO)(CO)CO)c(C)c1,13.9%
5,O=C(CSc1nc(O)cc(=O)[nH]1)C1CC1,9.55%
6,CC(C)(C)c1nnc2sc(SCC(=O)NCc3ccco3)nn2c1=O,-4.7%
7,COc1ccccc1NC(=O)c1ccccc1C(=O)Nc1ccccc1OC,7.94%
8,O=C(CSc1nc2c(c(=O)[nH]1)CCC2)Nc1cccc(F)c1,6.99%
9,O=C(NCC1CC1)c1onc(CSc2ccncc2)c1C(=O)NCC1CC1,6.62%
10,O=C(C1CCCN1S(=O)(=O)c1cccc2cccnc12)N1CCc2ccccc21 (stereo not shown),4.29%
11,Cc1ccc(NC(=O)OC(C)CNC(=O)Oc2cccc(C)c2)cc1 (stereo not shown),13.2%
12,C/C(=N\NC(=O)c1nnn(-c2nonc2N)c1-c1ccc2c(c1)OCO2)c1ccccc1,-0.752%
13,CCOC(=O)c1cc(NC(=O)C2C3C=CC(O3)C2C(=O)O)cc(C(=O)OCC)c1 (stereo not shown),4.41%
14,COc1ccc(/C=N/n2c(-c3n[nH]c4c3CCC4)n[nH]c2=S)cc1OC,18.8%
15,Cc1cc(C)n(C(C)n2nc(C)cc2C)n1,13.7%
16,Cc1ccc(/C=N/NC(=O)C2(C)CC2(Br)Br)cc1 (stereo not shown),9.02%
17,Cc1cccc(NC(=O)C2CCN(C(=O)c3ccccc3C)CC2)n1,-1.28%
18,Cc1cc(C(=O)COC(=O)CC2Sc3ccccc3NC2=O)c(C)n1-c1ccc2c(c1)OCO2 (stereo not shown),6.53%
19,CC(=O)Oc1ccc(NC(=O)Cc2ccccc2)c(C(=O)O)c1,5.02%
20,CC(=O)N/N=C(\C)CC(=O)Nc1cccc(C(F)(F)F)c1,4.9%
21,COc1ccc(-c2cc(C3CCN(c4cc(Cl)nc(N)n4)CC3)[nH]n2)cc1,7.21%
22,O=C(NCCCn1ccnc1)c1ccc(Cl)cc1[N+](=O)[O-],0.784%
23,O=C(Nc1nc(-c2cccc3ccccc23)cs1)c1cnccn1,15.5%

row,SMILES,"hERG current change (%, negative = inhibition) at 1uM"
1,CC1CCCC(NC(=O)CSc2nccn2C)C1C.Cl (stereo not shown),8.44%
2,Cc1ccc(NC(=O)C2CC(=O)N(c3ccc4c(c3)OCCO4)C2)cc1S(=O)(=O)N1CCCCCC1 (stereo not shown),6.92%
3,CCc1ccc(N2CC(C(=O)OC)CC2=O)cc1 (stereo not shown),9.09%
4,COc1ccc(C(=O)NC(CO)c2nnc(SCc3ccc(Cl)c(Cl)c3)n2C)cc1 (stereo not shown),4.53%
5,CN1C(=O)/C(=C/c2ccc(OCc3ccc(F)cc3)cc2)N(C)C1=S,11.7%
6,COc1cccc(/C=N/Nc2nc3ccccc3n3cnnc23)c1,12.9%
7,CC1=CCC2C(=O)N(Cc3ccccc3)C(=O)C2C1 (stereo not shown),9.01%
8,Cc1nn(C(C)(C)C)c(OC(=O)c2ccco2)c1Sc1ccccc1,11.8%
9,Oc1[nH]c2ccc(Br)cc2c1N=NC(=S)NCC1CCCO1 (stereo not shown),7.17%
10,O=C(CNC(=O)c1ccccc1Cl)OC1CCOC1=O (stereo not shown),13.5%
11,Cc1cc(-c2ccccc2)nc2cc(C(N)=O)nn12,13.6%
12,COc1ccc(CN2CCN(Cc3ccccc3F)CC2)cc1OC.O=C(O)C(=O)O,5.6%
13,Cc1csc(C)[n+]1CC(=O)c1ccccc1.[Br-],19.3%
14,CC1(C)Cc2c(c(-c3ccco3)[nH]c(=O)c2C#N)CO1,16.9%
15,O=[N+]([O-])c1ccc(N=NNc2ccccc2)cc1,11.3%
16,CN(CC(=O)Nc1ccc(S(N)(=O)=O)cc1)c1ccccc1,6.04%
17,Cc1nc(N)c(Br)c(C)c1Br,4.32%
18,CCOc1ccc(C(C)NC(=S)NCc2ccc(Cl)cc2)cc1 (stereo not shown),3.49%
19,O=C(CSc1cn(CCNC(=O)c2ccc3ccccc3c2)c2ccccc12)NCc1ccco1,2.41%
20,O=c1cc2c(nn1Cc1ccc(F)cc1)-c1ccccc1CC2,-11.4%
21,CC(=O)N1CCc2cc(S(=O)(=O)CCC(=O)O)ccc21,7.93%
22,O=S1(=O)N=C(N(Cc2cccs2)c2ccc(O)cc2)c2ccccc21,-4.3%
23,CCOC(=O)C1CCCN(CCC(=O)Nc2cccc(Cl)c2C)C1.Cl (stereo not shown),2.48%

row,SMILES,"hERG current change (%, negative = inhibition) at 1uM"
1,CC(C)(C)CC(C)(C)NCC(O)COCCOc1ccc(Br)cc1.Cl (stereo not shown),1.84%
2,CCCC(c1nnnn1C(C)(C)C)N1CCN(Cc2ccccc2)CC1.Cl (stereo not shown),-5.03%
3,CCOC(=O)CC(NC(=O)Cn1nnc(-c2ccccc2Cl)n1)c1ccc(OC)cc1 (stereo not shown),12.1%
4,COc1ccccc1Nc1nc(N)nc(CSc2nccc(C)n2)n1,13.4%
5,C(#Cc1ccccc1)CN1CCOCC1.Cl,12.8%
6,CC1CCCN(C(=O)Cn2nnc(-c3ccc(N(C)C)cc3)n2)C1 (stereo not shown),13.7%
7,COc1ccc(/C=C/C(=O)OCC(=O)c2ccc3c(c2)NC(=O)CO3)cc1,14.3%
8,O=C(CSCCc1ccccn1)Nc1ccc(Br)cn1,-8.45%
9,O=C(C1CCCN(S(=O)(=O)c2cnc[nH]2)C1)N(CCc1ccccc1)Cc1ccccc1 (stereo not shown),-1.14%
10,CCOc1cc(CNCCc2c[nH]c3ccccc23)cc(Cl)c1OCC(N)=O.Cl,-16.1%
11,CC1(C)CC(=O)c2cc(OCC(=O)NCc3cccnc3)ccc2O1,-5.3%
12,Cc1cc(C)cc(Oc2ccccc2/C=C\C(=O)O)c1,12.3%
13,O=C1C(=O)N(CCN2CCOCC2)C(c2cccc(Cl)c2)/C1=C(/O)c1ccc2c(c1)OCO2 (stereo not shown),16.3%
14,CCCNC(=O)NC(=O)COc1ccc(-c2ccc(C#N)cc2)cc1,10.1%
15,CO.COC(=O)/C=C/c1c(C)[nH]c(=O)[nH]c1=O,13.1%
16,O=C(CN1C(=O)NC2(CCCC2)C1=O)OCCOc1ccccc1,7.12%
17,CC1CN(S(=O)(=O)c2ccccc2)CN1C(=O)N1CCOCC1 (stereo not shown),15.7%
18,COC(=O)c1ccc(-c2nn(C)c(=O)c3ccccc23)cc1,5.21%
19,COc1cccc(CNC(=O)C2CCCN(c3ncnc4c3nc3n4CCCCC3)C2)c1 (stereo not shown),-9.22%
20,O=C(NCc1ccccc1)C1(C(F)(F)F)C/C(=C\CCO)CCCO1 (stereo not shown),14.1%
21,O=C(Nc1nc(-c2ccccc2)cs1)C1CCCN(S(=O)(=O)c2cccc([N+](=O)[O-])c2)C1 (stereo not shown),16.1%
22,CC(C(=O)Nc1cccnc1)N1C(=O)C2C3C=CC(C3)C2C1=O (stereo not shown),3.66%
23,O=C(c1cccc(Br)c1)N1CCCc2ccccc21,12.4%

row,SMILES,"hERG current change (%, negative = inhibition) at 1uM"
1,CCN(C(=O)c1cc2cc(OC)ccc2oc1=O)c1cccc(C)c1,17%
2,Cc1ccc(-c2nn(-c3ccccc3)cc2NC(=O)CCl)cc1,1.1%
3,COc1ccc2cc(Br)ccc2c1CC(=O)NC(C)(C)C,10.2%
4,CC1(C)CC(=O)C(C(C2=C(O)CC(C)(C)CC2=O)c2cccc(O)c2)C(=O)C1 (stereo not shown),-3%
5,Cc1ccccc1-c1nnn(CC(=O)NCc2ccc3c(c2)OCO3)n1,18.7%
6,O=C(O)c1cc(C(F)(F)F)nc2ccccc12,10.5%
7,CC1CN(S(=O)(=O)c2ccc(Cl)c(S(=O)(=O)N3CC(C)OC(C)C3)c2)CC(C)O1 (stereo not shown),9.12%
8,O=c1c(-c2ccc3c(c2)OCCO3)c(C(F)(F)F)oc2cc(O)cc(O)c12,-1.15%
9,O=C(CN1C(=O)COc2ccccc21)Nc1ccc2c(c1)OCCO2,6.01%
10,O=C(O)C1C2CCC(C2)C1C(=O)NCCc1ccc(F)cc1 (stereo not shown),24.5%
11,Cc1ccc(OC(=O)c2ccc3snnc3c2)cc1,9.79%
12,CC(=O)Nc1ccc(CNc2ncnc3ccc(-c4c(C)noc4C)cc23)cc1,11.5%
13,Cc1ccnc(NC(=O)CCc2c[nH]c3ccccc23)c1,7.34%
14,Cc1oc2ccccc2c1-c1cn2c(n1)SCC2,6.14%
15,CCN(Cc1ccccc1)C(c1ccc(C)cc1)c1nnnn1C(C)(C)C (stereo not shown),8.35%
16,O=C(NCCCN1CCCC1=O)C(=O)Nc1cccc(F)c1,-7.77%
17,COc1cc(C)cc2oc(=O)c(CC(=O)N3C[C@H]4C[C@@H](C3)c3cccc(=O)n3C4)c(C)c12,10.8%
18,Cc1ccc(CNC(=O)C2CCCN(S(=O)(=O)c3c(C)noc3C)C2)cc1 (stereo not shown),7.69%
19,COc1nc(Oc2ccc(C(=O)O)cc2)nc(Oc2ccc(C(=O)O)cc2)n1,6.33%
20,Cc1nn(-c2ncc(C(F)(F)F)cc2Cl)c(=O)n1-c1cccc(Cl)c1,20.3%
21,CCN(CC)CCCn1c2c(c(SCC(=O)Nc3ccc4c(c3)OCO4)nc1=O)CCC2,3.69%
22,CCN(Cc1ccccc1)c1ccc(/C=N/NC(=S)NC(C)C)cc1,6.96%
